Data: the RNAGym collection of RNA variant scans (doi:10.1073/pnas.2313332121)
Variants at the floor of the assay are shown more often than the library holds them.

B1: TPR 5TU (parent)
chain: GGAUCUUCUCGAUCUAACAAAAAAGACAAAUCUGCCACAAAGCUUGAGAGCAUCUUCGGAUGCAGAGGCGGCAGCCUUCGGUGGCGCGAUAGCGCCAACGUUCUCAACUAUGACACGCAAAACGCGUGCUCCGUUGAAUGGAGUUUAUCAUG

Variants of: B1
Assay: polymerase ribozyme fitness, log enrichment relative to wild type (log ratio); higher = more active; in vitro selection for triplet polymerase activity
Procedure, shortened: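 A single round of triplicate in vitro selection, including frozen incubation at −7 °C, was applied to PCR-built, transcribed mutant libraries of each subunit of a heterodimeric triplet polymerase ribozyme. Illumina sequencing of input and output libraries retained genotypes with ≥10 input reads and ≥1 read per output. Fitness is the base-2 logarithm of genotype enrichment divided by wild-type enrichment, from inverse-variance-weighted replicate averages.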

Variant | polymerase ribozyme fitness (log ratio)
A26C C36A U44G U55A G140C | -4.19
G25A A29C C36G A97C A106U A147G | ≤ -4.2
G25A U53A A107C U135G A142U | ≤ -4.2
A26C C35A C51U A98U C108G U151G | ≤ -4.2
G25U U77C C85U G117A A119C | ≤ -4.2
G25U C36U G67C C85G C87U A89U | ≤ -4.2
G25C C35G A49U U55A C57A G62C A110G A150G | ≤ -4.2
A26C C35A A37U G88A C105A | ≤ -4.2
G25C U33C G50A C72U C87A A97G U111A | ≤ -4.2
G25A C32G C57G U104A A107U | ≤ -4.2
G25A A41C A106G A121G A137G U148A | ≤ -4.2
A26C C36G | ≤ -4.2
G25A A28U A49C C54U C79G G86A U134G | ≤ -4.2
A24U A91U | ≤ -4.2
A24U U45G G86A | -2.58
G25C A41C A52G G86A C96A | ≤ -4.2
G25C G50U A91U | ≤ -4.2
G25U C35U G59U C95G C103U | ≤ -4.2
A24U U56A C87G A106C U135G A142U | ≤ -4.2
G25A G59A G80A A97G C105G A106G U127G A150C | ≤ -4.2
G25C G86A G94U | -3.91
A24U C99U | -1.46
G25U G48A G74U G88U | ≤ -4.2
A26C A37G U55G C87A | ≤ -4.2

Variant | polymerase ribozyme fitness (log ratio)
A24U G86C | -2.81
G25U A66G G92A C125U A150C | ≤ -4.2
A24U C38U A39C G81U C85U U135G | ≤ -4.2
A24U C57A A89U C95U C118U G143U | ≤ -4.2
G25A A30G C38U G48C C76G C93U | ≤ -4.2
A24U C75A A106C | ≤ -4.2
G25C C54A C76U G88A | ≤ -4.2
G25U C57A U61A C93A U148A | ≤ -4.2
G25U G81A G94U A120U G141C | -3.76
G25A C87A G88C G92A C123G | ≤ -4.2
A26C C85A G94C | -1.83
G25C A28G G46U G48A G59C G74A A119U | ≤ -4.2
G25U G50C A64G G68U G94A A106G | ≤ -4.2
A26C C36G C99G A106C A107U U109G U148G | ≤ -4.2
G25U A39C C87U C118U | ≤ -4.2
G25C C57A C63A G92C A113C U134A | ≤ -4.2
A26C A30U G58U G84A G128A A150C | ≤ -4.2
A26C C76A C87U C103G C116U | ≤ -4.2
G25U C57A C63U G94A C99G C132A | ≤ -4.2
G25U U61G | -2.3
G25U C35U G86C C103U G133U | ≤ -4.2
A24U A52U C118G A142U | -3.54
A26C A37G A52U C93A A110G C118U G136C | ≤ -4.2
G25U A49G A52U C85G C125U | ≤ -4.2

Variant | polymerase ribozyme fitness (log ratio)
G25U A52C U53A U56G U77A A91U U144A U148C | ≤ -4.2
G25U G50U G80C C116A G152U | ≤ -4.2
A24U G25U G88A G133C | ≤ -4.2
A24U C99G U135G G141U U148A | ≤ -4.2
A24U C32A A47C G59U U90C U101G | ≤ -4.2
G25C G42A G58U C87A C116A | ≤ -4.2
A24U C51G C76G G92A U145A C149G | ≤ -4.2
G25C A26U C87U U135G A142G | ≤ -4.2
G25A U56A A73U C85A C131U G143A | ≤ -4.2
G25A A64G G84U A110U | ≤ -4.2
G25A C35U G84A C87A A91U C118U A142G | ≤ -4.2
G25A A30G A41U G50A C87U | ≤ -4.2
A26C G48A C85U C105U | ≤ -4.2
G25A A47G G59A G83A A91U A107U A122U U127C | ≤ -4.2
G25C A66U | ≤ -4.2
A26C A52C C85A C96G C123U | ≤ -4.2
A24U C51A C76A A115C U139A | ≤ -4.2
A26C C32A U53G U56A C75U U104A U111C A120G | ≤ -4.2
A24U G48A U53A A106C | ≤ -4.2
G25U U45A G68C C87A A107C U148A | ≤ -4.2
A24U C35U G42C C93U G136C A142G | -4.03
A26C A41U C76U U102G G124A | ≤ -4.2
A26C A49U G59A | ≤ -4.2
A24U C43U C51U C57A C85U C129G | ≤ -4.2

Variant | polymerase ribozyme fitness (log ratio)
A24U G42C G84A C93U G94C C99A A122G | ≤ -4.2
A24U U33A C95U | ≤ -4.2
A24U G80U | -0.195
A26C C36U G58C C95U A110U U127G A150U | ≤ -4.2
G25U C57G A64C C105U A106U C116U | ≤ -4.2
G25C U31A C96G | -1.31
G25U A30C A47C C99G U101G C105A | ≤ -4.2
A26C C87A A91G A120U U139A | ≤ -4.2
A24U G74C | -4.19
G25U A113C C114A | ≤ -4.2
G25C A52U G88U A110G C118U | ≤ -4.2
G25U G50U C54A A66U A91C | ≤ -4.2
A24U G92U | 0.213
A26C A64C G68C U90C C95U U139A G143U | ≤ -4.2
G25U G84A | -3.07
A26C A37G A60U U90A G100C G141A C149U | ≤ -4.2
G25U G46A C57U C69A G128U A138U | ≤ -4.2
A26C C35U C108U | ≤ -4.2
A24U U55A C76G C79G A142C | ≤ -4.2
G25U G48C A52G C54G C57A A60G C96G U101G | ≤ -4.2
A24U G48A U55A G70A C87A C114U G152U | ≤ -4.2
A24U G25U C43U U77A G84A U101A C116G U145G | ≤ -4.2
G25U C76G G84U G136U C149U | ≤ -4.2
G25C A49C C93G | ≤ -4.2

Variant | polymerase ribozyme fitness (log ratio)
G25A C35U C38U G92A C93G | ≤ -4.2
A26C A91G G136C | ≤ -4.2
G25C A29C G67A C69G C85G C93U G136U G141U | ≤ -4.2
G25U A37U G58A G86C G92A | ≤ -4.2
G25U G70A U77G C87A C93A C105U U134G | ≤ -4.2
G25U A47U A52G G81A G86C A98G G133U G136C G143U | ≤ -4.2
A26C G42U C75G G86U U146G U151G | ≤ -4.2
G25A C38U C85G | -4.07
A24U G68U G81A U102A C118G A120C A137G G143A | ≤ -4.2
G25C A52C U53A C87U G92C A98G U104G C108G U135G | ≤ -4.2
A24U C38G G100C G140U | ≤ -4.2
A26C A49C | ≤ -4.2
G25A C57A C85A G152U | ≤ -4.2
G25C C116A G141C U146C | ≤ -4.2
G25U G88C G141C | ≤ -4.2
G25U A29U C51U G83C C105A C125A U151G | ≤ -4.2
G25C U82A G94U C118U G143U | ≤ -4.2
A24U C51A A64G U102C C116A | ≤ -4.2
G25A C51A C93G U111A G117U | ≤ -4.2
G25A C79G A110C A113U | ≤ -4.2
A24U C54A G58A G84A A120G G126U | -1.19
G25C A39G A66G G74A C132U A150C | ≤ -4.2
G25U A73G C87G | ≤ -4.2
G25C U33C G65U | ≤ -4.2

Variant | polymerase ribozyme fitness (log ratio)
G25U G50C G68C G80C G81U C85U C114U G141U | ≤ -4.2
A24U A60U G84U | -2.22
G25U C76U U77C A98U U139C A150C | ≤ -4.2
G25C A26G G70A A91C G94C | ≤ -4.2
A26C A30C U45A C54G G92A U104G A147G | ≤ -4.2
G25U A52U U56A C85A C118U U134G G141C | ≤ -4.2
G25C C72U C87A | ≤ -4.2
G25U G59A G62C C116U U145A | -1.79
G25A A26G G84A C96G A113C | ≤ -4.2
A26C A52C | -3.22
G25C A39U A115C | ≤ -4.2
G25A C54A G84U C114U A115G A121C U145G A150U | ≤ -4.2
G25U A49G G59U C99A | ≤ -4.2
A26C C27A A41U C96G | ≤ -4.2
A26C A91C A97U C105G | ≤ -4.2
G25A C32G A49G G81C C87G | ≤ -4.2
A24U A97G U151C | ≤ -4.2
A24U C51G U55A G59C | -2.27
A26C C57U A91C | ≤ -4.2
A24U C36U G65C C85U C87G C96G | ≤ -4.2
G25A C43A G84A C96A U111C A119U G133A U146C | ≤ -4.2
A24U G42C G50U C85G G136A G141A | ≤ -4.2
G25A U55A U135A | -3.79
G25C C38A G50C G92C U130G | ≤ -4.2

Variant | polymerase ribozyme fitness (log ratio)
G25A A26G G50C C57U U61A C95U U130G U135A | ≤ -4.2
A26C A40G U61G C96U A115G | ≤ -4.2
G25A C32U C75A C87U C105G A107U A119U U130A A137G | ≤ -4.2
G25U U61G A66C C87U A137G | ≤ -4.2
A26C C36A A37U A66G U90C | ≤ -4.2
G25C A41C G71C C95G U104G | ≤ -4.2
A26C A52C C54A C114A C129G U134A | ≤ -4.2
G25A A28U U53A C57G A73G U82A C93G U134A U148G | ≤ -4.2
A26C C105U | -2.13
A26C C35U G88U C96G C108U G143A | ≤ -4.2
G25C A91U C95U U109G A121G G136C G143A | ≤ -4.2
G25A A28U G94A U102A A137C | ≤ -4.2
A26C C27G C63A | ≤ -4.2
A26C A29U C36G A73U G84U G94C A110U | ≤ -4.2
G25U A37C U45A U135A G140U | ≤ -4.2
A26C C57A A121C U148G | ≤ -4.2
G25U C54G G74U U82G C85U C131A U144A | ≤ -4.2
A26C A49C A52U A73G U148A A150C | ≤ -4.2
A24U G80C U90A A115G G140U U145G | ≤ -4.2
A26C A29G U33C | ≤ -4.2
A26C A47G C63A A91C A97U A98G A138U | ≤ -4.2
G25C A40C G58C C95U C131G | ≤ -4.2
G25A A47U A52C U77G G84A C93G U127C | ≤ -4.2
